# Screen size: about 420,000 compounds; about 50,000 (12%) were called active. The shares of active, inactive and inconclusive entries below differ from those in the screen. Calls follow the shape of the dose curve; as a rule, active = well fitted inhibition curve with a large enough effect; inconclusive = small, poorly fitted or top-dose-only effect; inactive = flat fitted curve, though single readings scatter. Potencies of inconclusive entries are left out as doubtful fits.
# Experiment: qHTS for Inhibitors of human tyrosyl-DNA phosphodiesterase 1 (TDP1): qHTS in cells in presence of CPT; also: nearly all actives have a fitted effect of over 55% in size
# Conditions: chicken DT40 Tdp1-/-;hTDP1 cells + 20 nM CPT, ATP luminescence, 48 h; activity change, negative = growth inhibition: at 46.2 µM (top of the series) unless noted
# Procedure, shortened: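 Cell growth measured by CellTiter-Glo luminescence after a minimum 48 h, 37 C compound exposure with 20 nM CPT in Tdp1-knockout DT40 cells stably expressing hTDP1, seeded 400/well; qHTS titration format.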
# % is scaled to controls: 0 for no effect and ±100 for the full control effect; potency is read from the fitted curve at half-maximal effect; tags tell the direction and shape of the fitted curve.
Compound,Potency,"activity change, negative = growth inhibition"
COc1ccc(CC(=O)N2CC3(C)CC2CC(C)(C)C3)cc1OC (configuration not stated),"inconclusive [inhibitor, single point]",–
Cc1ccc(C(=O)NCCc2nnc3c(C(F)(F)F)cc(Cl)cn23)o1,–,inactive: -5.77%
COC1=C(Nc2ccc(OC)cc2)C(=O)c2ccccc2C1=O,active: 29.1 µM,–
O=C(CSCc1cnn(-c2ccccc2)c1-n1cccc1)NCc1cccc(Cl)c1,active: 16.4 µM,–
Cc1cccc(C)c1NC(=O)CC1SC2=NCCN2C1=O (configuration not stated),"inconclusive [inhibitor, single point]",–
COc1ccccc1-c1csc(C(O)c2ccc(F)c(F)c2)n1 (configuration not stated),–,inactive: -25.8%
CC1(C(=O)NCc2ccc3c(c2)OCO3)CCN1C(=O)CCc1ccc(Cl)cc1Cl (configuration not stated),active: 20.6 µM,–
COc1cc(NC(=O)Cn2c(=O)ccc3cc(S(=O)(=O)N4CCCC4)ccc32)cc(OC)c1,"inconclusive [inhibitor, single point]",–
COc1ccc(Cl)cc1CNC[C@H]1O[C@@H](n2ccc(N)nc2=O)[C@H](O)[C@@H]1O,–,inactive: 3.59%
COc1cc2c(NC3CCN(C)CC3)nc(N3CCCN(C)CC3)nc2cc1OCCCCN,"inconclusive [inhibitor, single point]",–
O=C(Cn1cncn1)N/N=C/c1ccncc1,–,inactive: -0.642%
CSC1=NCCN1C(=O)Cc1ccc(-c2ccccc2)cc1,"inconclusive [inhibitor, single point]",–
Cc1ccc(NC(=S)NC(NC(=O)c2ccccc2C)C(Cl)(Cl)Cl)c(C)c1 (configuration not stated),"inconclusive [inhibitor, single point]",–
CC(=O)c1cccc(Nc2ccc(C#N)cc2)c1,"inconclusive [inhibitor, single point]",–
Cc1ccc(S(=O)(=O)Nc2ccc3nc(-c4ccc(F)cc4)oc3c2)cc1,"inconclusive [inhibitor, single point]",–
Cc1noc(C)c1-c1ccc(C(=O)NCCN2CCOCC2)c2occc12,"inconclusive [inhibitor, single point]",–
CC(C)(C)NC(=O)c1oc2ccccc2c1NC(=O)c1ccccc1F,"inconclusive [inhibitor, single point]",–
Cc1ccc(C)c(S(=O)(=O)N2CCN(C(=O)C3CCN(C(=O)c4ccc(F)cc4)CC3)CC2)c1,"inconclusive [inhibitor, partial curve]",–
CCOC(=O)CNC(=S)N(Cc1ccc(C)cc1)Cc1ccc(C)o1,"inconclusive [inhibitor, single point]",–
Cc1ccc(NS(=O)(=O)c2ccc(C(=O)N3CC(C)OC(C)C3)cc2)cc1 (configuration not stated),"inconclusive [inhibitor, partial curve]",–
CCCCOc1ncnc2c1[nH]c1ccc(C)cc12,"inconclusive [inhibitor, single point]",–
Cc1ccc(Cc2c(-c3ccc(F)cc3)nc3ccc(Br)cn23)cc1,"inconclusive [inhibitor, single point]",–
FC(F)(F)c1ccc(/C=N/N2CCN(Cc3ccccc3)CC2)cc1,–,inactive: 4.64%
C(=N\N1CCN(Cc2ccccc2)CC1)/c1ccc(-c2ccccc2)cc1,–,inactive: -29.7%

Compound,Potency,"activity change, negative = growth inhibition"
CCCCCCNc1c(C(=O)OCC)c(=O)[nH]c2ccccc12,active: 16.4 µM,–
CC(Sc1nc(N)cc(=O)[nH]1)C(=O)Nc1ccc(N2CCOCC2)cc1 (configuration not stated),–,inactive: -6.68%
COc1ccc(CNC(=O)c2cc3ccccn3n2)cc1OC,–,inactive: -22.6%
CC(C)(C)c1cc(-c2nc(N)nc(N)n2)cc(C(C)(C)C)c1,–,inactive: 1.75%
Cc1cccc(CNc2cc(-c3c(C)noc3C)ncn2)c1,"inconclusive [inhibitor, single point]",–
O=C(CCSc1ccccc1)Nc1nc2c(s1)CCCC2,"inconclusive [inhibitor, single point]",–
Cc1cc(-c2ccc([N+](=O)[O-])cc2)nc2ccccc12,–,inactive: 1.83%
O=C(NCc1ccncc1)C1Cc2c(-c3ccc4c(c3)OCO4)ccnc2O1 (configuration not stated),"inconclusive [inhibitor, single point]",–
COc1ccc(C)cc1N(CC(=O)N/N=C/c1ccccc1C(=O)O)S(=O)(=O)c1ccccc1,–,inactive: -16.6%
Cc1ccc(C(=O)Cn2c(=N)n(N)c3ccccc32)cc1,"inconclusive [inhibitor, single point]",–
COc1ccccc1N(C)S(=O)(=O)c1ccc(C(=O)N(C)Cc2cccc(OC)c2OC)cc1,"inconclusive [inhibitor, single point]",–
COc1ccc(C2CC(c3ccccc3)=NN2C(=O)COC(=O)c2cccc(N)c2)cc1 (configuration not stated),"inconclusive [inhibitor, single point]",–
CC(C)[C@H](NC(=O)c1ccccc1)C(=O)OCC(=O)NCc1ccc2c(c1)OCO2,–,inactive: 28.3%
CCc1ccc(-n2c(=O)c3c4c(sc3n(CC(=O)c3ccc(Br)cc3)c2=O)CCC4)cc1,active: 5.8 µM,–
O=C(COC(=O)Cc1c[nH]c2ccccc12)NC1CCCCC1,–,inactive: 10%
O=C(Nc1ccccc1)Nc1ccc2nnsc2c1,active: 20.6 µM,–
COc1ccc(CNc2ncnc3cc(Cl)ccc23)cc1OC,"inconclusive [inhibitor, single point]",–
O=C(CCc1ccccc1Cl)NC1CCCN(c2ccc(C(F)(F)F)cn2)C1 (configuration not stated),–,inconclusive: -11.4% [inhibitor]
COc1ccc(-c2c(C#N)sc(C(N)=O)c2-c2ccc(OC)cc2)cc1,"inconclusive [inhibitor, single point]",–
Cc1nnc(SCc2nc3ccccc3nc2C)s1,–,inactive: -1.33%
Cc1noc(C)c1-c1ccc(C(=O)NCc2ccco2)c2occc12,"inconclusive [inhibitor, single point]",–
O=C(NCc1ccccc1)c1cc2ccc3cccnc3c2[nH]1,"inconclusive [inhibitor, single point]",–
COCC(=O)Nc1c(C(=O)Nc2ccc3c(c2)OCO3)oc2ccccc12,"inconclusive [inhibitor, single point]",–

# From PubChem BioAssay AID686979 (National Center for Advancing Translational Sciences (NCATS), 2013)
